Patent US20240239861A1, “GLUCAGON-RECEPTOR SELECTIVE POLYPEPTIDES AND METHODS OF USE THEREOF” (i2O Therapeutics, Inc., priority 2016, published 2024)
At least one structure is not confirmed: it was looked up by name or label, or the drawing left a doubt. *1 amine or outer side, *2 acyl side, *3 side chain or, on linkers, in order; H or OH if unused. Where a SMILES comes first, the peptide text is derived from it. Side-chain parts run from the residue outwards. [ ]: non-standard residue; d: D form. The star is where a group is joined. C18 diacid = O=C(O)CCCCCCCCCCCCCCCCC(=O)*; γGlu = O=C(O)[C@H](CCC(=O)[*:2])N[*:1]; AEEA = NCCOCCOCC(=O)O; Aib = CC(C)(N)C(=O)O

Key:
[1] = biological target: human GLP-1R (Homo sapiens, UniProt P43220); experiment: Peptide-receptor mediated cAMP accumulation (LANCE Ultra cAMP) in CHO-K1 cells transfected with human GLP-1R; format: cell-based; details: Table 7
[2] = biological target: human GCGR (Homo sapiens, UniProt P47871); experiment: Peptide-receptor mediated cAMP accumulation (LANCE Ultra cAMP) in CHO-K1 cells transfected with human GCGR; format: cell-based; details: Table 7; glucagon receptor (GluR)
Chain of human GCGR (P47871 26-477): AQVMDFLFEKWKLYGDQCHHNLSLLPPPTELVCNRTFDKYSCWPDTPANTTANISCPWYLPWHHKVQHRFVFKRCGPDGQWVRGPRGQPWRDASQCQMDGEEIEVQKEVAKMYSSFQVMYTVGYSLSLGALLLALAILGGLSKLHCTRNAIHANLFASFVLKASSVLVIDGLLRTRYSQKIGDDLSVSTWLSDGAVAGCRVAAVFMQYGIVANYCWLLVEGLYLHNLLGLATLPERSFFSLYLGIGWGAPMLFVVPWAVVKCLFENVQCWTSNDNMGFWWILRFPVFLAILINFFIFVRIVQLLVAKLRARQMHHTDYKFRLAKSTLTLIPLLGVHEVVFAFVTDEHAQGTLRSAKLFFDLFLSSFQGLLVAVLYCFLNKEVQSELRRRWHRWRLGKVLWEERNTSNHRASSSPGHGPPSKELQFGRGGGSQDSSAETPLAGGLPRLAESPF

Chain of human GLP-1R (P43220 24-463): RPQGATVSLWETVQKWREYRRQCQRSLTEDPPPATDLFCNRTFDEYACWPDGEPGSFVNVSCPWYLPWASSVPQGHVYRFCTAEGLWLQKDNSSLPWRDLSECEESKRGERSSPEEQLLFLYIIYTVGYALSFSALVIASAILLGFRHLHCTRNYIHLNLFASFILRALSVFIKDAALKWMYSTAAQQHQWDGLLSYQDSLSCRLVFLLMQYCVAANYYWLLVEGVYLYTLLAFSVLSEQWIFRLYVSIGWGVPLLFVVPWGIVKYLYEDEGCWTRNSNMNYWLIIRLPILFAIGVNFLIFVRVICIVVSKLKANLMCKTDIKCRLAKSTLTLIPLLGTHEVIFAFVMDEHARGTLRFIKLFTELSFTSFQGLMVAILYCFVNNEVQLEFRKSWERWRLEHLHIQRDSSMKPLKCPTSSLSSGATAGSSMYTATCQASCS

| Compound | GLP-1R pEC50 [1] | GluR pEC50 [2] |
| --- | --- | --- |
| CC(C)C[C@H](NC(=O)[C@H](Cc1ccc(O)cc1)NC(=O)[C@H](CCCCN)NC(=O)[C@H](CO)NC(=O)[C@H](CCCCNC(=O)COCCOCCNC(=O)COCCOCCNC(=O)CC[C@H](NC(=O)CCCCCCCCCCCCCCCCC(=O)O)C(=O)O)NC(=O)[C@H](CC(=O)O)NC(=O)[C@H](CO)NC(=O)[C@@H](NC(=O)[C@H](Cc1ccccc1)NC(=O)[C@@H](NC(=O)CNC(=O)[C@H](CCC(N)=O)NC(=O)[C@H](CO)NC(=O)[C@@H](N)Cc1c[nH]c2ccccc12)[C@@H](C)O)[C@@H](C)O)C(=O)N[C@@H](CC(=O)O)C(=O)NC(C)(C)C(=O)N[C@@H](CCCCN)C(=O)N[C@@H](CCCNC(=N)N)C(=O)N[C@@H](C)C(=O)N[C@@H](CCC(N)=O)C(=O)N[C@@H](CCC(=O)O)C(=O)N[C@@H](Cc1ccccc1)C(=O)N[C@H](C(=O)NC(C)(C)C(=O)N[C@@H](Cc1c[nH]c2ccccc12)C(=O)N[C@@H](CC(C)C)C(=O)N[C@@H](CCC(=O)O)C(=O)N[C@@H](CC(=O)O)C(=O)N[C@@H](CCC(=O)O)C(=O)N1CCC[C@H]1C(=O)N[C@@H](CO)C(=O)N[C@@H](CO)C(=O)NCC(=O)N[C@@H](C)C(=O)N1CCC[C@H]1C(=O)N1CCC[C@H]1C(=O)N1CCC[C@H]1C(=O)N[C@@H](CO)C(=O)O)C(C)C [Compound B24] (H-WSQGTFTSDK([AEEA-AEEA-γGlu-C18 diacid])SKYLD[Aib]KRAQEFV[Aib]WLEDEPSSGAPPPS-OH) | 6.8 | 8.2 |
| CC[C@H](C)[C@H](NC(=O)[C@@H](NC(=O)[C@H](Cc1ccccc1)NC(=O)[C@H](CCCCNC(=O)COCCOCCNC(=O)COCCOCCNC(=O)CC[C@H](NC(=O)CCCCCCCCCCCCCCCCC(=O)O)C(=O)O)NC(=O)[C@H](CCC(N)=O)NC(=O)[C@H](C)NC(=O)[C@H](CCCNC(=N)N)NC(=O)[C@H](CCCCN)NC(=O)C(C)(C)NC(=O)[C@H](CC(=O)O)NC(=O)[C@H](CC(C)C)NC(=O)[C@H](Cc1ccc(O)cc1)NC(=O)[C@H](CCCCN)NC(=O)[C@H](CO)NC(=O)[C@H](Cc1ccc(O)cc1)NC(=O)[C@H](CC(=O)O)NC(=O)[C@H](CO)NC(=O)[C@@H](NC(=O)[C@H](Cc1ccccc1)NC(=O)[C@@H](NC(=O)CNC(=O)[C@H](Cc1c[nH]cn1)NC(=O)[C@H](CO)NC(=O)[C@@H](N)Cc1ccc(O)cc1)[C@@H](C)O)[C@@H](C)O)C(C)C)C(=O)N[C@@H](Cc1c[nH]c2ccccc12)C(=O)N[C@@H](CC(C)C)C(=O)N[C@@H](CCC(=O)O)C(=O)N[C@@H](CC(=O)O)C(=O)N[C@@H](CCC(=O)O)C(=O)N1CCC[C@H]1C(=O)N[C@@H](CO)C(=O)N[C@@H](CO)C(=O)NCC(=O)N[C@@H](C)C(=O)N1CCC[C@H]1C(=O)N1CCC[C@H]1C(=O)N1CCC[C@H]1C(=O)N[C@@H](CO)C(=O)O [Compound B30] (H-YSHGTFTSDYSKYLD[Aib]KRAQK([AEEA-AEEA-γGlu-C18 diacid])FVIWLEDEPSSGAPPPS-OH) | 7.0 | 9.7 |
| CC[C@H](C)[C@H](NC(=O)[C@@H](NC(=O)[C@H](Cc1ccccc1)NC(=O)[C@H](CCC(=O)O)NC(=O)[C@H](CCC(N)=O)NC(=O)[C@H](C)NC(=O)[C@H](CCCNC(=N)N)NC(=O)[C@H](CCCCN)NC(=O)[C@H](CCCCNC(=O)COCCOCCNC(=O)COCCOCCNC(=O)CC[C@H](NC(=O)CCCCCCCCCCCCCCCCC(=O)O)C(=O)O)NC(=O)[C@H](CC(=O)O)NC(=O)[C@H](CC(C)C)NC(=O)[C@H](Cc1ccc(O)cc1)NC(=O)[C@H](CCCCN)NC(=O)[C@H](CO)NC(=O)[C@H](Cc1ccc(O)cc1)NC(=O)[C@H](CC(=O)O)NC(=O)[C@H](CO)NC(=O)[C@@H](NC(=O)[C@H](Cc1ccccc1)NC(=O)[C@@H](NC(=O)CNC(=O)[C@H](Cc1c[nH]cn1)NC(=O)[C@H](CO)NC(=O)[C@@H](N)Cc1ccc(O)cc1)[C@@H](C)O)[C@@H](C)O)C(C)C)C(=O)N[C@@H](Cc1c[nH]c2ccccc12)C(=O)N[C@@H](CC(C)C)C(=O)N[C@@H](CCC(=O)O)C(=O)N[C@@H](CC(=O)O)C(=O)N[C@@H](CCC(=O)O)C(=O)N1CCC[C@H]1C(=O)N[C@@H](CO)C(=O)N[C@@H](CO)C(=O)NCC(=O)N[C@@H](C)C(=O)N1CCC[C@H]1C(=O)N1CCC[C@H]1C(=O)N1CCC[C@H]1C(=O)N[C@@H](CO)C(=O)O [Compound B31] (H-YSHGTFTSDYSKYLDK([AEEA-AEEA-γGlu-C18 diacid])KRAQEFVIWLEDEPSSGAPPPS-OH) | 7.4 | 10.6 |
| CC[C@H](C)[C@H](NC(=O)[C@@H](NC(=O)[C@H](Cc1ccccc1)NC(=O)[C@H](CCC(=O)O)NC(=O)[C@H](CCC(N)=O)NC(=O)[C@H](C)NC(=O)[C@H](CCCNC(=N)N)NC(=O)[C@H](CCCCN)NC(=O)C(C)(C)NC(=O)[C@H](CC(=O)O)NC(=O)[C@H](CC(C)C)NC(=O)[C@H](Cc1ccc(O)cc1)NC(=O)[C@H](CCCCN)NC(=O)[C@H](CO)NC(=O)[C@H](CCCCNC(=O)COCCOCCNC(=O)COCCOCCNC(=O)CC[C@H](NC(=O)CCCCCCCCCCCCCCCCC(=O)O)C(=O)O)NC(=O)[C@H](CC(=O)O)NC(=O)[C@H](CO)NC(=O)[C@@H](NC(=O)[C@H](Cc1ccccc1)NC(=O)[C@@H](NC(=O)CNC(=O)[C@H](Cc1c[nH]cn1)NC(=O)[C@H](CO)NC(=O)[C@@H](N)Cc1ccc(O)cc1)[C@@H](C)O)[C@@H](C)O)C(C)C)C(=O)N[C@@H](Cc1c[nH]c2ccccc12)C(=O)N[C@@H](CC(C)C)C(=O)N[C@@H](CCC(=O)O)C(=O)N[C@@H](CC(=O)O)C(=O)N[C@@H](CCC(=O)O)C(=O)N1CCC[C@H]1C(=O)N[C@@H](CO)C(=O)N[C@@H](CO)C(=O)NCC(=O)N[C@@H](C)C(=O)N1CCC[C@H]1C(=O)N1CCC[C@H]1C(=O)N1CCC[C@H]1C(=O)N[C@@H](CO)C(=O)O [Compound B32] (H-YSHGTFTSDK([AEEA-AEEA-γGlu-C18 diacid])SKYLD[Aib]KRAQEFVIWLEDEPSSGAPPPS-OH) | 7.8 | 9.4 |
| CC(C)C[C@H](NC(=O)[C@H](Cc1ccc(O)cc1)NC(=O)[C@H](CCCCN)NC(=O)[C@H](CO)NC(=O)[C@H](Cc1ccc(O)cc1)NC(=O)[C@H](CC(=O)O)NC(=O)[C@H](CO)NC(=O)[C@@H](NC(=O)[C@H](Cc1ccccc1)NC(=O)[C@@H](NC(=O)CNC(=O)[C@H](Cc1c[nH]cn1)NC(=O)[C@H](CO)NC(=O)[C@@H](N)Cc1ccc(O)cc1)[C@@H](C)O)[C@@H](C)O)C(=O)N[C@@H](CC(=O)O)C(=O)N[C@@H](CO)C(=O)N[C@@H](C)C(=O)N[C@@H](CCCNC(=N)N)C(=O)N[C@@H](C)C(=O)N[C@@H](CCC(N)=O)C(=O)N[C@@H](CCC(=O)O)C(=O)N[C@@H](Cc1ccccc1)C(=O)N[C@H](C(=O)N[C@@H](CCCCNC(=O)COCCOCCNC(=O)COCCOCCNC(=O)CC[C@H](NC(=O)CCCCCCCCCCCCCCCCC(=O)O)C(=O)O)C(=O)N[C@@H](Cc1c[nH]c2ccccc12)C(=O)N[C@@H](CC(C)C)C(=O)N[C@@H](CCC(=O)O)C(=O)N[C@@H](CC(=O)O)C(=O)N[C@@H](CCC(=O)O)C(=O)N1CCC[C@H]1C(=O)N[C@@H](CO)C(=O)N[C@@H](CO)C(=O)NCC(=O)N[C@@H](C)C(=O)N1CCC[C@H]1C(=O)N1CCC[C@H]1C(=O)N1CCC[C@H]1C(=O)N[C@@H](CO)C(N)=O)C(C)C [Compound B46] (H-YSHGTFTSDYSKYLDSARAQEFVK([AEEA-AEEA-γGlu-C18 diacid])WLEDEPSSGAPPPS-NH2; N-terminus assumed) | <6 | 9.5 |
| CC(C)C[C@H](NC(=O)[C@H](Cc1ccc(O)cc1)NC(=O)[C@H](CCCCN)NC(=O)[C@H](CO)NC(=O)[C@H](Cc1ccc(O)cc1)NC(=O)[C@H](CC(=O)O)NC(=O)[C@H](CO)NC(=O)[C@@H](NC(=O)[C@H](Cc1ccccc1)NC(=O)[C@@H](NC(=O)CNC(=O)[C@H](Cc1c[nH]cn1)NC(=O)[C@H](CO)NC(=O)[C@@H](N)Cc1ccc(O)cc1)[C@@H](C)O)[C@@H](C)O)C(=O)N[C@@H](CC(=O)O)C(=O)N[C@@H](CCCCNC(=O)COCCOCCNC(=O)COCCOCCNC(=O)CC[C@H](NC(=O)CCCCCCCCCCCCCCCCC(=O)O)C(=O)O)C(=O)N[C@@H](C)C(=O)N[C@@H](CCCNC(=N)N)C(=O)N[C@@H](C)C(=O)N[C@@H](CCC(N)=O)C(=O)N[C@@H](CCC(=O)O)C(=O)N[C@@H](Cc1ccccc1)C(=O)N[C@H](C(=O)N[C@@H](CCCCN)C(=O)N[C@@H](Cc1c[nH]c2ccccc12)C(=O)N[C@@H](CC(C)C)C(=O)N[C@@H](CCC(=O)O)C(=O)N[C@@H](CC(=O)O)C(=O)N[C@@H](CCC(=O)O)C(=O)N1CCC[C@H]1C(=O)N[C@@H](CO)C(=O)N[C@@H](CO)C(=O)NCC(=O)N[C@@H](C)C(=O)N1CCC[C@H]1C(=O)N1CCC[C@H]1C(=O)N1CCC[C@H]1C(=O)N[C@@H](CO)C(N)=O)C(C)C [Compound B47] (H-YSHGTFTSDYSKYLDK([AEEA-AEEA-γGlu-C18 diacid])ARAQEFVKWLEDEPSSGAPPPS-NH2; N-terminus assumed) | <6 | 10.8 |
| CC(C)C[C@H](NC(=O)[C@H](Cc1ccc(O)cc1)NC(=O)[C@H](CCCCN)NC(=O)[C@H](CO)NC(=O)[C@H](CCCCNC(=O)COCCOCCNC(=O)COCCOCCNC(=O)CC[C@H](NC(=O)CCCCCCCCCCCCCCCCC(=O)O)C(=O)O)NC(=O)[C@H](CC(=O)O)NC(=O)[C@H](CO)NC(=O)[C@@H](NC(=O)[C@H](Cc1ccccc1)NC(=O)[C@@H](NC(=O)CNC(=O)[C@H](Cc1c[nH]cn1)NC(=O)[C@H](CO)NC(=O)[C@@H](N)Cc1ccc(O)cc1)[C@@H](C)O)[C@@H](C)O)C(=O)N[C@@H](CC(=O)O)C(=O)N[C@@H](CO)C(=O)N[C@@H](C)C(=O)N[C@@H](CCCNC(=N)N)C(=O)N[C@@H](C)C(=O)N[C@@H](CCC(N)=O)C(=O)N[C@@H](CCC(=O)O)C(=O)N[C@@H](Cc1ccccc1)C(=O)N[C@H](C(=O)N[C@@H](CCCCN)C(=O)N[C@@H](Cc1c[nH]c2ccccc12)C(=O)N[C@@H](CC(C)C)C(=O)N[C@@H](CCC(=O)O)C(=O)N[C@@H](CC(=O)O)C(=O)N[C@@H](CCC(=O)O)C(=O)N1CCC[C@H]1C(=O)N[C@@H](CO)C(=O)N[C@@H](CO)C(=O)NCC(=O)N[C@@H](C)C(=O)N1CCC[C@H]1C(=O)N1CCC[C@H]1C(=O)N1CCC[C@H]1C(=O)N[C@@H](CO)C(N)=O)C(C)C [Compound B48] (H-YSHGTFTSDK([AEEA-AEEA-γGlu-C18 diacid])SKYLDSARAQEFVKWLEDEPSSGAPPPS-NH2; N-terminus assumed) | <6 | 9.2 |
